In publication PMC9630114:
These are yes or no findings as the source states them, for the method shown. Binding seen in cells or lysates may run through a third protein. Some binding calls cover weakened binding; strength is not graded here. Sequences can lack the tags named with a protein. Values belong to the molecule of their own block, whether it stands above or below them.

The chains behind the UniProt entries cited, without tags or fusion partners. Residues count along the entry.
UniProt Q9BVK8: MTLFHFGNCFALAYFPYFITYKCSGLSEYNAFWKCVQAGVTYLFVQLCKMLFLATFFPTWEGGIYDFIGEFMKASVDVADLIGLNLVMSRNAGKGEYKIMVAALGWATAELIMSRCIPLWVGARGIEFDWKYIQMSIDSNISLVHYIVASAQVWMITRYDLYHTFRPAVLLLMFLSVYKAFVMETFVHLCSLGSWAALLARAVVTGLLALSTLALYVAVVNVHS
UniProt Q969V3, residues 43-563: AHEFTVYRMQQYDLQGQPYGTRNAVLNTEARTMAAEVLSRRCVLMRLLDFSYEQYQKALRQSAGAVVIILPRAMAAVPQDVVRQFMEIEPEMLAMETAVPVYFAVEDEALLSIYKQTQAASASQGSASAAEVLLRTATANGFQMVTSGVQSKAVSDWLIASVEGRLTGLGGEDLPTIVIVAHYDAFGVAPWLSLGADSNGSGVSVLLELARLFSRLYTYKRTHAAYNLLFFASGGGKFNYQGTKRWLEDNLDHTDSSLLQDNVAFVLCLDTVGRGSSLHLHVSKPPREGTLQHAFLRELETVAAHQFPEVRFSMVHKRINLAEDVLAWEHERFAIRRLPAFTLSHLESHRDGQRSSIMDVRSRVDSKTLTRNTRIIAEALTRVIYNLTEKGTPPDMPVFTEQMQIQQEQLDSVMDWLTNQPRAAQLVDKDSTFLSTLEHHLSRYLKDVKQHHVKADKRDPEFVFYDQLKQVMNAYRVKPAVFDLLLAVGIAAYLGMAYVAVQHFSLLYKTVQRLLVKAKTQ
UniProt Q9BUV8: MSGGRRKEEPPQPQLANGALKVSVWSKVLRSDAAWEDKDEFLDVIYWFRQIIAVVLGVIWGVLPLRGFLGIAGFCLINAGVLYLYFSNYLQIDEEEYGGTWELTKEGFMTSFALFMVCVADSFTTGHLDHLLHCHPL

Experiments:
[1] = target: T1, stalled, Flag-tagged YIPF1 construct truncated at position 277 (UniProt Q9Y548); test: co-IP; stalled N-terminally Flag-tagged nascent chains translated in RRL with HEK293 rough microsomes (wild type; in some panels ΔTN, ΔTC, ΔS or single knockouts), membranes nuclease-treated and digitonin-solubilized, anti-Flag immunoprecipitation, Flag-peptide elution, ribosome-nascent chain complexes pelleted through a sucrose cushion; immunoblot
T1 sequence: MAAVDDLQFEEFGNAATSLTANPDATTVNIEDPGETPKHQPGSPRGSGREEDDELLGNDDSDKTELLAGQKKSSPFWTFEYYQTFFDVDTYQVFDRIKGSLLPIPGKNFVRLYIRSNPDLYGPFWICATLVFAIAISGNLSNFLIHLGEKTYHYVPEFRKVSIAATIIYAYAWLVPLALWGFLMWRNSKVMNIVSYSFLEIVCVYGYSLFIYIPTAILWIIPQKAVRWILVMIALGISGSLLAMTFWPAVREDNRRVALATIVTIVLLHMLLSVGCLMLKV

[2] = target: T2, stalled, Flag-tagged YIPF1 construct truncated at position 183 (UniProt Q9Y548); test: as above
T2 sequence: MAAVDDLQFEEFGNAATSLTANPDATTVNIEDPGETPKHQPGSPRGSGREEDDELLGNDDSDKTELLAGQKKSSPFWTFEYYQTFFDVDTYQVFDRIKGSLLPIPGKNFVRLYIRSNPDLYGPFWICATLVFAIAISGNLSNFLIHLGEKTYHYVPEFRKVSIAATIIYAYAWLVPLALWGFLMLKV

[3] = target: T3, N-terminally Flag-tagged CCDC47 (UniProt Q96A33); test: co-IP; anti-Flag (M2 beads) immunoprecipitation from nuclease-treated, digitonin-solubilized HEK293 microsomes, overnight at 4 °C, Flag-peptide elution, eluate pelleted through a sucrose cushion; ribosome-bound fraction (pellet); immunoblot
T3 sequence: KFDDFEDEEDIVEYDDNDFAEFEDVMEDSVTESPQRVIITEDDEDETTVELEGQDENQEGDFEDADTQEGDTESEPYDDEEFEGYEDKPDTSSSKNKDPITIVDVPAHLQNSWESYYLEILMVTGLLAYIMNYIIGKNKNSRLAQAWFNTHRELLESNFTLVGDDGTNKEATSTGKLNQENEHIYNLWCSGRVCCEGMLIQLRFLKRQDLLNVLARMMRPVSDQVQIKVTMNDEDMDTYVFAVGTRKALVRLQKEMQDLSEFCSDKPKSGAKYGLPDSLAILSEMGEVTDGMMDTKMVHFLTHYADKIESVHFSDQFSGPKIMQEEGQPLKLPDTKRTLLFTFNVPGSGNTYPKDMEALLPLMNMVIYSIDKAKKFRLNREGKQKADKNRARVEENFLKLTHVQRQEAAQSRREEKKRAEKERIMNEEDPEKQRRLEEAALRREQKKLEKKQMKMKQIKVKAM

binding [1]: binds
binding [2]: no binding
Molecule: TMEM147 (from UniProt Q9BVK8 1-224)

binding [1]: binds
binding [2]: no binding
Molecule: nicalin (from UniProt Q969V3 43-563)

binding [1]: binds
binding [2]: no binding
Molecule: C20Orf24 (from UniProt Q9BUV8 1-137)

binding [1]: binds
binding [2]: no binding
binding [3]: binds
B1: Asterix (protein, UniProt Q9Y284 1-106)
chain: MSTNNMSDPRRPNKVLRYKPPPSECNPALDDPTPDYMNLLGMIFSMCGLMLKLKWCAWVAVYCSFISFANSRSSEDTKQMMSSFMLSISAVVMSYLQNPQPMTPPW
